# Measurements: the supplement of paper PMC11417369
# ± gives the standard deviation of the averaged measurements. The list shows a part of the results.
# System: PfAP2-G AP2 domain (GST-tagged)
# Test: gcPBM binding intensity (ln(normalized median fluorescence intensity)); higher = stronger DNA binding
# Summary of the method: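 The highest Masliner-normalised natural-log median intensity across replicate spots of either probe orientation is reported as binding intensity. GST-tagged P. falciparum DNA-binding domains expressed in E. coli were applied for 1 h to an Agilent 4 × 180k array of primer-extended double-stranded 36-bp intergenic genomic probes plus negative controls, and bound protein was detected with Alexa488 anti-GST antibody and scanned at 488 nm.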
row,Sequence,gcPBM binding intensity (ln)
1,TTAATATATTATATTTGTACATATATATATATACAA [XGTACX_site4798],10.9 ± 0.62
2,AAATTGTGTTCATCAGCACACACAACATCATGTAAT [CACACA_site8556],10.1 ± 0.12
3,AATAAATCTTTTTGTTGTACTAAAAATATTATTAGC [XGTACX_site3335],11.3 ± 0.65
4,TTATGATGGTCTTTATAAGGGCACATTAAATTCGGC [TGCATGCA_negctrl_site166],10.6 ± 0.42
5,AAACTATTCACTATAATACATTAGAAGTGAATAAAA [TGCATGCA_negctrl_site498],9.66 ± 0.13
6,ATACATCAAGGACACACACACACACGCACACGCACA [CACACA_site6310],11 ± 0.6
7,TTTTTATAAAAAAATAGTACTCGTCTAATCTTATGT [XGTACX_site8532],11.3 ± 0.78
8,TATATATAAATATTCAGTACATAGTGCTATTAAGTG [XGTACX_site1979],10.8 ± 0.47
9,CCATTATATCTAAGTACACACATTAATTTTTTTTTT [CACACA_site6115],11.5 ± 0.98
10,AGAAATTAATCGAGGTGTACGTACATCCAAATATAT [XGTACX_site7650],11.8 ± 1.2
11,ATATATTTAACAAGATGTACAATTTTATAAAAAATA [XGTACX_site2351],11 ± 0.62
12,TGAAAAGGAAATTGTTGTACATATGTTTCTTCCTAA [XGTACX_site3932],11.2 ± 0.8
13,AATAGCAATTTGGGGTGTACACACACCTTATTTAAA [XGTACX_site2234],11.5 ± 0.95
14,AAAATATATATAAATGCATGCATAATGAAATATATA [TGCATGCA_site39],9.66 ± 0.14
15,TTTTAAAAAACAAACACACACGTAGAAAAAAAAAAA [CACACA_site4608],10.1 ± 0.24
16,CTGTATAAAACCAATGCATGTAAATATATTAATATA [TGCATGCA_site511],9.93 ± 0.042
17,GAAATTTTATTTCGGCGGACAAATGTATACTTTCTT [XGTACX_site4238],11.2 ± 0.73
18,GATTATTATGTCCATGCATGTTAATATATATTAATT [TGCATGCA_site837],10.6 ± 0.39
19,AAATTGGGGCTTGTTACACACTTAGTGCGAGTTCTA [CACACA_site582],10.3 ± 0.26
20,GAGAAGACATTACACAGTACCCAGTAACTCTACGGA [XGTACX_site2000],10.6 ± 0.32
21,TATGCGTATATATAAATACACACCAAATGTTAATAT [CACACA_site1713],10.2 ± 0.21
22,ATATATTATTATAACTGTACTTTTTTTGTGGTTAAT [XGTACX_site8266],11.5 ± 0.83
23,TATGGATGTATTCATACATGCACACGTACATATTTA [TGCATGCA_site991],11.3 ± 0.86

row,Sequence,gcPBM binding intensity (ln)
1,ATAATTTGATGGTTAACACACATATATATTATATAT [CACACA_site2449],10.2 ± 0.16
2,ATATAAATATAAATATATATGTATAAATATAAATAT [CACACA_negctrl_site247],9.565 ± 0.064
3,CCATTTACATTGTGAAGTACTAAAAAAAAATGTAGA [XGTACX_site7882],11.1 ± 0.61
4,ACAAGGAATATAAAAAGTACATAAAATACATAAAAA [XGTACX_site1217],11.3 ± 0.64
5,ATTTATTTTAATAATTGTACATGTTATTTTATATAT [XGTACX_site2667],10.9 ± 0.57
6,TACTTTTCATCTTCTTAACACACAAAAAAAAAAAAA [CACACA_site9290],10.1 ± 0.52
7,TATATATATATATATACACACAAAAAAATAAATTCT [CACACA_site98],10.1 ± 0.32
8,ATCATTTTTAAAGGAACACACAAAAAAAGTTATAAT [CACACA_site6761],10.17 ± 0.099
9,TTTATATTATTAGAAACACACATTAGATTAAAATTA [CACACA_site3286],9.86 ± 0.14
10,TATATATATATGTGCACACCAATTGTATGTAATATA [CACACA_site3889],10.6 ± 0.38
11,TATTTAATTACATGAACACACATTATATATTTTTAA [CACACA_site5615],9.85 ± 0.014
12,ACTACATAATATTAACGTACATATTATAATACTTGC [XGTACX_site954],11.3 ± 0.81
13,ATATAACACATTAGTTGTACTATTTTTAATTGGTGA [XGTACX_site961],11.3 ± 0.88
14,ACATAATAAAAATGACGTACAATTTTTTTTTTTCAT [XGTACX_site8340],11.4 ± 0.91
15,CATTAAAAAGAAAGTTCACACACATATATATGACGG [CACACA_site8836],10.19 ± 0.099
16,TACATAATAACATGTACACACATTCTTCTATAAATG [CACACA_site4061],11.4 ± 0.83
17,ATATATTATATTGAATGTACATATATATATTATATA [XGTACX_site8445],11 ± 0.59
18,GTTAATATCTTGAACAGTACTCTAAATATCTACATA [XGTACX_site5358],10.9 ± 0.51
19,ATGAATAATTAATGATGTACTTAAAAAAAAAAATAT [XGTACX_site6346],11.3 ± 0.72
20,AAAAAAAAAAAAAAAAAAAAAAAAAAAAAAACATAT [GTGCAC_negctrl_site580],11.2 ± 0.67
21,TAGCCCATATGGAATACACACTGAAAATAAAAAAAG [CACACA_site5799],10.3 ± 0.32
22,TTACAATAAATTATAGTGCAATATTTTATTTAATAT,9.9 ± 0.26
23,TGCTATAATTTATATACACACAAATATATACACATA [CACACA_site9356],10.02 ± 0.064

row,Sequence,gcPBM binding intensity (ln)
1,GATAATAATAAACAACCACACACAAAAAAACAAAAA [CACACA_site9074],10.2 ± 0.28
2,ATAAAAAAACACACTCGTACACACATATTTTCTTTC [XGTACX_site6565],11.2 ± 0.59
3,CAATGTTGTACATACACACACACAAAAAAAAAATAA [CACACA_site2407],11.3 ± 0.97
4,TTCAAATTTCCACATACACACCTTGTAGATCTATAT [CACACA_site6270],10.1 ± 0.11
5,ACAACATATGTTATCACACACATATAAATATAAATA [CACACA_site7038],9.99 ± 0.11
6,ATTTTGATGATGTATGCACACATTGAAAATGAGAAA [CACACA_site2916],10.2 ± 0.19
7,ATATATATATATATATGTACATATTTGATTTTTCTT [XGTACX_site8171],11.1 ± 0.79
8,AAATCTTAACTCTATGCACACATAAAAGTATATAAA [CACACA_site8709],10.1 ± 0.19
9,ATGATATACTTGAGTGTGCACAAACTATTACTTACA,10.6 ± 0.33
10,CACACGCACAGACACACACACACACGGATATAAATA [CACACA_site6301],10.5 ± 0.42
11,TTTTTTTTTTTTTTTTGTACATATAAAAATACGTAA [XGTACX_site6003],11 ± 1.1
12,TCACTACATTTTGGACGTACACAACTTGATATATTG [XGTACX_site4775],11.6 ± 0.98
13,ATCGGTAATATTAACACACACATTTATATATATTTA [CACACA_site1084],10.1 ± 0.14
14,TTTTGTAGATATTGAAGTACAAAAAAAATGTAAAAG [XGTACX_site5905],11.5 ± 1.1
15,ATAATAAATATATAATGTACATATTATGTTCTTTAT [XGTACX_site8655],11 ± 0.65
16,CGCTCTTATAAATGTTGTACATAAAACTGTTCATTA [XGTACX_site3409],11.4 ± 0.83
17,TATATATCGCCCTTCACACACACACGGATATAAATA [CACACA_site7221],10.5 ± 0.47
18,AACATATTTATGATGTGTACCTACATAATAGAATTT [XGTACX_site141],11.1 ± 0.71
19,ATGCGTTAATCTATATATATTATGTATAGATTTTCA [CACACA_negctrl_site1650],9.53 ± 0.21
20,TTTTTTAATATATTATTATAAATATTTTTTATGTGT [GTGCAC_negctrl_site712],9.765 ± 0.007
21,CATAATGTAAATAAGTGTACACATATATAATACATA [XGTACX_site3108],11.6 ± 0.9
22,ATATTTTGATAATATTGTACAAAAACATTAAAATGT [XGTACX_site8361],10.8 ± 0.44
23,GATCATTCAGTTTTATCACACACAATCAAACATATA [CACACA_site8882],10.2 ± 0.18

row,Sequence,gcPBM binding intensity (ln)
1,AACATTATGTTTATTTGTACATATAAATATATGTAA [XGTACX_site7389],10.8 ± 0.45
2,TCTTTTATGATATTTACACACAAACGTGAGATAGCT [CACACA_site2312],9.965 ± 0.092
3,CTCTACGAATTCATAGTGCAAAGAGCTAATTTTTTC [GTGCAC_site9710],9.805 ± 0.007
4,AAAAAACTATTATGTGCATGCACAAGTCAGGTAAAT [TGCATGCA_site791],10.3 ± 0.19
5,AAAAAGAAATCCAATACACACCTTCAAAATGGGTAT [CACACA_site4978],9.79 ± 0.2
6,TATTTATAGATATATACACACATATTTATATTTATA [CACACA_site6441],9.71 ± 0.014
7,CCTATTTATAAATACACACACATATATAAATAAATA [CACACA_site5629],10.3 ± 0.45
8,TTGTTCATATTTTTTATTGTGTTAATATTTATAAAA [GTGCAC_negctrl_site423],10.2 ± 0.27
9,TTAATGTAGAGAAAATGTACATTTTATTAAAACAAT [XGTACX_site6376],10.9 ± 0.4
10,CATTAAATATATAAATGTACAAATATATTTTTCAAA [XGTACX_site4429],10.9 ± 0.52
11,CCTCTTTTTATTCTCACACACGTTTATATATAAAGT [CACACA_site4992],10.5 ± 0.26
12,TTTTAAATATATGTGCTATTATATTAAGAGATGTAA [GTGCAC_negctrl_site560],9.88 ± 0.23
13,ATCTATAAATTTCCACGTACATATATATATATATAT [XGTACX_site4502],11.4 ± 0.93
14,TTTTTTATTTTTGCGTGTACATAATAATGAATCTTC [XGTACX_site8077],11.4 ± 1
15,GAAATTTCCCATATTACACACATACTATGATATATA [CACACA_site5987],10.07 ± 0.092
16,TTCTTTGCTTTTCAAACACACAAAAGTTATTATATT [CACACA_site521],10.04 ± 0.064
17,AAAAGAAAATAAGAAACACACAAAAATATATAAAAA [CACACA_site3697],9.9 ± 0.099
18,TTATAAATGTATTTATGTACATATAAATATATATAA [XGTACX_site2970],11.2 ± 0.66
19,TTTTTTTTTTTTTTGGTGCACATAGAAATTCTAAAA [GTGCAC_site9809],10.5 ± 0.69
20,ATATAAATCAAAAACGCACACATAAATATTTATATA [CACACA_site2442],10.1 ± 0.21
